From publication PMC4336329 (PLoS ONE, 2015) come the findings set out here.

Each structure is given as a SMILES string. Screen size: about 310,000 compounds; about 14,000 (4.5%) showed an effect of 50% or more. The effect is printed as a negative number. The list shows a part of the results.
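Further: peak tail current of the secondary pulse compared with the same well before compound.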

The target of the test is human ether-à-go-go-related gene (hERG) potassium channel (human, UniProt Q12809). The experiment in a line: primary screen, population patch clamp on CHO cells stably expressing hERG.
human ether-à-go-go-related gene (hERG) potassium channel, sequence (Q12809 whole entry, looked up): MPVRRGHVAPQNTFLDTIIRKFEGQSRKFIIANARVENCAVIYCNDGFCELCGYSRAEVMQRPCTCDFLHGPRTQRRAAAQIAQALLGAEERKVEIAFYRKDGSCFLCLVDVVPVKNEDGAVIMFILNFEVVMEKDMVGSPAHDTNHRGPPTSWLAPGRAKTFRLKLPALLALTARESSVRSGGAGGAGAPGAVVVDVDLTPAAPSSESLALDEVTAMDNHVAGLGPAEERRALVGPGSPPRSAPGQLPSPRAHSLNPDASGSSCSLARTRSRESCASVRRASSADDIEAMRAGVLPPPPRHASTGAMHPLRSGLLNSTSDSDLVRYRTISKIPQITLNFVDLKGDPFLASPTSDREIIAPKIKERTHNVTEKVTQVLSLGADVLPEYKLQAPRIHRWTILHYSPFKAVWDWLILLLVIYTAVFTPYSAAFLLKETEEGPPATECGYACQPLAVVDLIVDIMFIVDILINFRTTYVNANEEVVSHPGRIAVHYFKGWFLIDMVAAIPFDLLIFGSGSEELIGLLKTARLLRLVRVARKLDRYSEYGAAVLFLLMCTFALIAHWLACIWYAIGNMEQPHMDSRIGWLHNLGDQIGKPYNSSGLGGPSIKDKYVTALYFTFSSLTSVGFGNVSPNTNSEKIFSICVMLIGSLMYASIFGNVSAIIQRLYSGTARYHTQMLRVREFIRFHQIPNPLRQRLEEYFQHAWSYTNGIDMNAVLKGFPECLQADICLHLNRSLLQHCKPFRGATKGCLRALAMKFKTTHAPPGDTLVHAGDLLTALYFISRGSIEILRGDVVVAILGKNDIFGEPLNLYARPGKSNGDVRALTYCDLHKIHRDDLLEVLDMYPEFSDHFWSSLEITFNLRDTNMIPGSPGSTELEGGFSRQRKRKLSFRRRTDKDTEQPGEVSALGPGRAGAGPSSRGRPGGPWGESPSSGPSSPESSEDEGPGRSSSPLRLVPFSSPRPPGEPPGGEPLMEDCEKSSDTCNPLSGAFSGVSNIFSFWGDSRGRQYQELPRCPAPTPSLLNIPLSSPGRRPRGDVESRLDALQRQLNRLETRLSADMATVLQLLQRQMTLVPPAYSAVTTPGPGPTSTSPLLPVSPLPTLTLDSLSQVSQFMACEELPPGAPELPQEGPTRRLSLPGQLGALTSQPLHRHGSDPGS
Turning to `Cc1ccc(-c2cc(NC(=O)CCl)n(-c3ccccc3)n2)cc1`, the “hERG current change (%, negative = inhibition) at 10uM” value is reported as -35.7%. Under `O=C(CSc1nnc(Cc2ccccc2)o1)c1cc(F)ccc1F` stands 14.9%; under `CCOC(=O)c1sc(NC(=O)Cn2nnc3sc4c(c3c2=O)CCCC4)nc1C`, -1.92%. Under `NC(=O)c1cc2cc(Cc3ccccc3Cl)ccc2oc1=O` stands 19.7%; under `CCOC(=O)NC(C)N1C(=O)C2C3C=CC(C3)C2C1=O` (centres unmarked), 1.17%. For `COc1ccc(C(c2c(C)n(C)n(-c3ccccc3)c2=O)c2c(C)n(C)n(-c3ccccc3)c2=O)c(OC)c1OC`, the “hERG current change (%, negative = inhibition) at 10uM” value is recorded as 19.3%. Under `O=c1cc(CSc2ccc(Cl)cc2)[nH]c2[nH]n(-c3ccccc3)c(=O)c12` stands 17.6%.

For the compound `CCCCOC(=O)C1=C(C)Nc2nnnn2C1c1ccccc1Cl` (centres unmarked), the “hERG current change (%, negative = inhibition) at 10uM” value amounted to 14.4%.

Consider `COC(=O)c1ccc(/C=N/NS(=O)(=O)c2cc(C)ccc2C)cc1`, for which the “hERG current change (%, negative = inhibition) at 10uM” value is -0.827%. Under `COc1cc(-c2nn3c(C4CCCCC4)nnc3s2)cc(OC)c1OC` stands -2.95%; under `CCc1c(C)[nH]c2ccc(C)cc2c1=O`, 21.4%; under `CC(C)C(NC(=O)C1CCCCC1)C(=O)NC1CCCC(C)C1C` (centres unmarked), 25.3%. `Cc1cc(Cl)ccc1OCC(=O)Nc1nc(-c2cccs2)cs1`: the “hERG current change (%, negative = inhibition) at 10uM” value was 15.6%. To `COc1ccc(N(CC(=O)NCc2ccco2)S(=O)(=O)c2c(C)nn(C)c2C)cc1` belongs 10.6%; to `CCOc1ccc2c(c1)c(=O)c(S(=O)(=O)c1ccc(C)cc1)cn2CC`, -23%; to `COc1ccc(CCNC(=O)Cn2cnc3c(nnn3Cc3ccccc3F)c2=O)cc1OC`, 6.55%. To `Cc1nn(Cc2ccc(C(=O)N3CCN(C(=O)c4ccco4)CC3)o2)c(C)c1[N+](=O)[O-]` belongs -32.6%; to `CCOc1ncccc1C(=O)Nc1ccc(C)c(S(=O)(=O)N2CCCCCC2)c1`, -10.6%. Under `CCOc1ccc(NC(=O)NCCCSC2CCCCC2)cc1` stands -2.88%; under `Cc1ccc(CSc2cc(C)[nH]c(=O)n2)cc1`, 8.93%.

With `COc1ccc(OC)c(NC2=NC3(CCCC3)N=C(N)N2)c1`, the “hERG current change (%, negative = inhibition) at 10uM” value turned out to be 21.2%. Under `COc1ccccc1NC(=O)CN(c1ccc(C)cc1)S(=O)(=O)c1c(C)n[nH]c1C` stands -5.7%; under `FC(F)(F)c1cccc(OCCN2CCN(Cc3ccccc3)CC2)c1.O=C(O)C(=O)O`, -40.8%; under `Cc1c(Cl)cccc1N1CC(C)(C)C1=O`, -2.95%. Turning to `O=C1NC(c2ccccn2)Nc2sc3c(c21)CCC3` (centres unmarked), the “hERG current change (%, negative = inhibition) at 10uM” value is listed as 13.9%. `Brc1ccccc1-n1nnc(-c2ccnc3ccccc23)n1`: the “hERG current change (%, negative = inhibition) at 10uM” value turned out to be 7.38%. Turning to `CCC(C)NC(=O)Cn1c(=O)sc2ccccc21` (centres unmarked), the “hERG current change (%, negative = inhibition) at 10uM” value was 4.15%. As for `O=C(c1cccs1)N1CCc2c([nH]c3ccccc23)C1c1ccc(Cl)cc1` (centres unmarked), the “hERG current change (%, negative = inhibition) at 10uM” value was 6.41%. For the compound `COc1cccc(C(=O)NC(=S)N2CCN(c3ccc(C(F)(F)F)cc3[N+](=O)[O-])CC2)c1`, the “hERG current change (%, negative = inhibition) at 10uM” value came out at 1.6%. With `Nc1cc2c(cc1O)CCCC2`, the “hERG current change (%, negative = inhibition) at 10uM” value is recorded as 26.8%.

Turning to `Cc1ccc(-n2c(SCC(=O)Nc3ccc(Cl)cc3)nc(O)cc2=O)cc1`, the “hERG current change (%, negative = inhibition) at 10uM” value worked out at 9.08%. Turning to `O=C(c1ccc(N2CCCCS2(=O)=O)cc1)N1CCN(c2ccc(N3CCOCC3)nn2)CC1`, the “hERG current change (%, negative = inhibition) at 10uM” value came to 19.7%. Under `Cc1ccc(NS(=O)(=O)c2ccc(C(=O)NCc3ccncc3)cc2)cc1` stands 5.69%. Take `Cc1ccnc(NC(=S)NC(=O)/C=C/c2ccc(Cl)cc2)c1`: the “hERG current change (%, negative = inhibition) at 10uM” value was -14.4%. To `COc1cc(C2C3=C(CC(C)(C)CC3=O)N(C)C3=C2C(=O)CC(C)(C)C3)cc(Br)c1O` belongs -17.5%.

In the case of `Cc1cnc([N+](=O)[O-])n1CCOC(=O)c1cccc(F)c1`, the “hERG current change (%, negative = inhibition) at 10uM” value is given as -3.45%.

For the compound `O=C(NC1CCS(=O)(=O)C1)/C(=C/c1ccco1)NC(=O)c1ccccc1` (centres unmarked), the “hERG current change (%, negative = inhibition) at 10uM” value worked out at 11.2%. To `O=C1CC(N2CCCCCC2)C(=O)N1c1ccc(F)cc1` (centres unmarked) belongs 14.4%; to `O=S(=O)(Nc1nc2ccc(Cl)cc2s1)c1cccs1`, 18.5%; to `COc1cc2cc(CCCOC(=O)c3ccc(Br)cc3)oc(=O)c2cc1OC`, -8.44%.

Turning to `CC1(C)NC(=O)N(CC(O)COc2ccccc2[N+](=O)[O-])C1=O` (centres unmarked), the “hERG current change (%, negative = inhibition) at 10uM” value is given as 10.2%. To `Cc1ccc(Cn2c(O)c(N=O)c3ccccc32)cc1` belongs 1.91%; to `COc1ccccc1-n1c(SCC(=O)N2CCCCC2)nc2cccnc21`, -0.485%. On to `Cc1ccc(NS(=O)(=O)c2ccc3c(c2)NC(=O)CO3)cc1C`, for which the “hERG current change (%, negative = inhibition) at 10uM” value stood at 14.6%. Under `CC/C(C)=N\Nc1nc(-c2cc3cc(OC)ccc3oc2=O)cs1` stands 7.11%; under `O=C(NNc1nc2ccccc2s1)c1ccc(F)cc1`, -19%. Turning to `CCOC(=O)N1CCN(C(=O)CNC(=O)c2nn(-c3ccc(OC)c(OC)c3)c(=O)c3ccccc23)CC1`, the “hERG current change (%, negative = inhibition) at 10uM” value was 8.5%.

As to `O=C(OCCN1C(=O)c2ccccc2C1=O)c1cc(S(=O)(=O)N2CCOCC2)ccc1F`, the “hERG current change (%, negative = inhibition) at 10uM” value is -31.7%. To `C[C@@H](O)[C@@H]1NC(=O)c2cc([N+](=O)[O-])cc(I)c2NCC[C@@H](C(N)=O)NC(=O)CNC1=O` belongs 2.05%; to `CCCCCCCN1C=CC(=O)CC1`, 8.78%. To `CC1(C)Cc2noc(N)c2C(C)(C)N1OC(=O)c1ccco1` belongs 7.3%. To `O=C(CNS(=O)(=O)c1ccccc1)N/N=C/c1ccc(O)cc1` belongs -0.142%. On to `O=C(Nc1ccc(S(=O)(=O)N2CCOCC2)cc1)c1c(F)cccc1F`, for which the “hERG current change (%, negative = inhibition) at 10uM” value is -22.1%.

`COc1ccc(C(=O)N2CCN(S(=O)(=O)c3ccc(Br)cc3)CC2)cc1`: the “hERG current change (%, negative = inhibition) at 10uM” value is -30%. For `CC1(C)C(=O)OC(C(=O)c2ccc(Cl)cc2)C(C)(C)C1=O` (centres unmarked), the “hERG current change (%, negative = inhibition) at 10uM” value came out at 3.02%.

On to `C/C(=N\NC(=O)Cc1ccccc1[N+](=O)[O-])c1cccnc1`, for which the “hERG current change (%, negative = inhibition) at 10uM” value is 5.63%.

As for `CCOP(=O)(OCC)/C(=N/OC(=O)c1ccc(Cl)cc1Cl)C(N)=O`, the “hERG current change (%, negative = inhibition) at 10uM” value is 13.1%. Under `C/C(=N\OCC(=O)N/N=C/c1ccccc1)c1cccs1` stands 0.637%; under `Cc1ccc2c(CC(=O)O)coc2c1C`, -2.54%. Under `CCOc1cc(/C=N\NC(=O)c2ccc(NC(=O)CC)cc2)ccc1OC(=O)c1ccccc1` stands 8.01%; under `Cc1[nH]c2ccccc2c(=O)c1C(=O)/C=C/c1ccccc1`, -17.7%. Under `CN(C)/C(CN1CCOCC1)=C1\N=C(c2ccccc2)OC1=O` stands -4.38%. Consider `Cl.O=C(NCCN1CCNCC1)c1ccccn1`, for which the “hERG current change (%, negative = inhibition) at 10uM” value is 13.1%. To `CCN(CC)CCNC(=O)c1ccc(CS(=O)(=O)c2ccc(Br)cc2)o1` belongs -46.5%.

`CN(C)S(=O)(=O)c1ccc(Cl)c(C(=O)NCCNC(=O)c2cc(S(=O)(=O)N(C)C)ccc2Cl)c1`: the “hERG current change (%, negative = inhibition) at 10uM” value was found to be 26.5%. In the case of `COc1ccccc1Cn1cnc2cccnc21`, the “hERG current change (%, negative = inhibition) at 10uM” value is reported as 13.5%. To `Cn1c(=O)c(C(=O)NCc2ccccc2)c(O)c2ccccc21` belongs 11.4%; to `CC(C)Cc1nnc(NC(=O)C2=COCCO2)s1`, 24.4%; to `O=C1COc2ccc(S(=O)(=O)N3CCCC3)cc2N1`, 19.6%. To `COC(=O)c1c(C)oc(C)c1S(=O)(=O)NCc1ccc(OC)cc1` belongs 5.07%; to `COc1cc(N=Cc2c(O)c3ccccc3oc2=O)c(OC)cc1Cl`, 12.8%. To `CC(=O)NC1=NN(C(C)=O)C(C)(CCS(=O)(=O)c2ccc(Cl)c(Cl)c2)S1` (centres unmarked) belongs -2.84%; to `COc1ccc(CN2CCC(n3nccc3NC(=O)C3CC3)CC2)c(Cl)c1OC`, -39.2%; to `O=C(OCc1ccc(F)cc1)c1cc(=O)c2ccccc2o1`, 9.19%. On to `Nc1cc(=O)[nH]c(SCC(=O)Nc2ccccc2Sc2ccc(Cl)cc2)n1`, for which the “hERG current change (%, negative = inhibition) at 10uM” value was 14.5%.

In the case of `Cc1ccc(C(=O)OCC(=O)NCc2ccc3c(c2)OCO3)s1`, the “hERG current change (%, negative = inhibition) at 10uM” value is -2.69%. Consider `CCOc1ccc(C(=O)NCCN2CCOCC2)cc1`, for which the “hERG current change (%, negative = inhibition) at 10uM” value amounted to 10.3%.

For `CCn1nc(C)c(C2C(C#N)=C(N)OC3=C2C(=O)CCC3)c1C` (centres unmarked), the “hERG current change (%, negative = inhibition) at 10uM” value was -7.39%. Turning to `O=C(NN=C1CCCCCC1)c1cccs1`, the “hERG current change (%, negative = inhibition) at 10uM” value is reported as -1.18%. On to `COc1cccc(C(=O)Nc2nnc(CCS(=O)(=O)c3ccc(C)cc3)s2)c1`, for which the “hERG current change (%, negative = inhibition) at 10uM” value was found to be 20.3%.

Turning to `Cc1c(C)n(CCc2c[nH]c3ccccc23)ccc1=O`, the “hERG current change (%, negative = inhibition) at 10uM” value is listed as 12.6%. Under `Nc1ccc(Cc2ccc(N)c(C(=O)O)c2)cc1C(=O)O` stands 22.6%; under `COc1cc(S(=O)(=O)N2CCOCC2)ccc1NC(=O)COC(=O)C12CC3CC(CC(C3)C1)C2`, -21.8%.

Regarding `COc1ccc(NS(=O)(=O)c2c(C)[nH]c(C)c2C(=O)N2CCCCC2)cc1Cl`, the “hERG current change (%, negative = inhibition) at 10uM” value came to 0.953%. To `CC(Sc1nccn1C)C(=O)c1c(N)n(C)c(=O)n(C)c1=O` (centres unmarked) belongs 15.7%.

As to `COc1ccc(N(CC(=O)NCc2ccccc2)S(=O)(=O)c2c(C)n[nH]c2C)cc1`, the “hERG current change (%, negative = inhibition) at 10uM” value is -35.6%. As for `CC(=O)N(C)c1nc(-c2ccc(Cl)cc2)cs1`, the “hERG current change (%, negative = inhibition) at 10uM” value is listed as 20.6%. Under `CC(C)c1ccccc1OCCNC(=S)NC(=O)c1cccnc1` stands 41.7%; under `CCOc1ccc(CCNC(=O)c2nnn(CC(=O)Nc3c(C)cc(C)cc3C)c2N)cc1OCC`, 12.6%.
